# Results published in the RNAGym collection of RNA variant scans (doi:10.1101/gad.245936.114).
# This sample is rich in variants without activity.
# B1: tRNA (parent)
# chain: CUCUCGGUAGCCAAGUUGGUUUAAGGCGCAAGACUUUAAUUUAUCACUACGAAAUCUUGAGAUCGGGCGUUCGACUCGCCCCCGGGAGAUUUUUUCCUCGAGCAA
# Variants of: B1
# Assay: nonsense suppression (GFP-seq) (ratio to wild type); higher = more function; SUP4oc tRNA, yeast GFP reporter sort-seq
# How it was run: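 To measure nonsense suppression, tRNA variants from a library carrying ~3% random mutations were integrated into the yeast genome alongside RFP and a GFP ochre reporter under galactose control. Growth took place in raffinose/galactose medium supplemented with 80 mg/L adenine, followed by sorting into GFP/RFP bins and Illumina sequencing of each bin (phred ≥30). For each variant with ≥100 reads and ≥30 cells, the bin median GFP/RFP values were weighted by its estimated cell share per bin and referenced to the unmutated parent tRNA.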
row,Variant,nonsense suppression
1,CUCUCGGUAGCCAAGUUGGUUUAAGGCGCAAGACUUUAAUUUAUCACUACGAAAUCCUGAGAUCGGGCGUUCGACCCGCCCCCGGGAGAUUUUUUCCUCGAGCAA [U57C U76C],≤ 0.026
2,CUCUCGGUAGCCAAGUUGGUUUAAGGCGCAAGACUUUAAUUUAUCACUACGAAAUCGUGAGAUCGGGCGUUCGACUCGCCCCCGGGAGAUUUUUUCCUCGAGCAA [U57G],≤ 0.026
3,CUCUCGGUAGCCAAGUUGGUUUAAGGCGCAAGACUUUAAUUUAUCACUACGAAAUCGUGGGAUCGGGCGUUCGACUCGACCCCCGGAGAUUUUUUCCUCGAGCAA [U57G A60G C79A G84C],≤ 0.026
4,CUCUCGGUAGCCAAGUUGGUUUAAGGCGCAAGACUUUAAUUUAUCACUACGAAAUCGUGUGAUCGGGCGUUCGACUCGCCCCCGGGAGAUUUUUUCCUCGAGCAA [U57G A60U],≤ 0.026
5,CUCUCGGUAGCCAAGUUGGUUUAAGGCGCAAGACUUUAAUUUAUCACUACGAAAUCGUGAGCUCGGGCGUUCGACUCGCCCCCGGGAGAUUUUUUCCUCGAGCAA [U57G A62C],≤ 0.026
6,CUCUCGGUAGCCAAGUUGGUUUAAGGCGCAAGACUUUAAUUUAUCACUACGAAAUCGUGAGGUCGGGCGUUCGACUCGCCCCCGGGAGAUUUUUUCCUCGAGCAA [U57G A62G],≤ 0.026
7,CUCUCGGUAGCCAAGUUGGUUUAAGGCGCAAGACUUUAAUUUAUCACUACGAAAUCGUGAGAUCGGGCGUUCGACUCGCCCCCGGGAGUUUUUUUCCUCGAGCAA [U57G A89U],≤ 0.026
8,CUCUCGGUAGCCAAGUUGGUUUAAGGCGCAAGACUUUAAUUUAUCACUACGAAAUCGUGAGAUCGGGAGUUCGACUCGCCCCCGUGAGAUUUUUUCCUCGAGCAA [U57G C68A G85U],≤ 0.026
9,CUCUCGGUAGCCAAGUUGGUUUAAGGCGCAAGACUUUAAUUUAUCACUACGAAAUCGUGAGAUCGGGUGCUCGACUCGCCCCCGGGAGAUUUUUUCCUCGAGCAA [U57G C68U U70C],≤ 0.026
10,CUCUCGGUAGCCAAGUUGGUUUAAGGCGCAAGACUUUAAUUUAUCACUACGAAAUCGUGAGAUCGGGCGUUCGAAUCGCCCCCGGGAGAUUUUUUCCUCGAGCAA [U57G C75A],≤ 0.026
11,CUCUCGGUAGCCAAGUUGGUUUAAGGCGCAAGACUUUAAUUUAUCACUACGAAAUCGUGAGAUCGGGCGUUCGAGUCGCCCCCGGGAGAUUUUUUCCUCGAGCAA [U57G C75G],≤ 0.026
12,CUCUCGGUAGCCAAGUUGGUUUAAGGCGCAAGACUUUAAUUUAUCACUACGAAAUCGUGAGAUCGGGCGUUCGACUCGGCCCCGGGAGAUUUUUUCCUCGAGCAA [U57G C79G],≤ 0.026
13,CUCUCGGUAGCCAAGUUGGUUUAAGGCGCAAGACUUUAAUUUAUCACUACGAAAUCGUGAGAUCGGGCGUUCGACUCGCGCCCGGGAGAUUUUUUCCUCGAGCAA [U57G C80G],≤ 0.026
14,CUCUCGGUAGCCAAGUUGGUUUAAGGCGCAAGACUUUAAUUUAUCACUACGAAAUCGUGAGAUCGGGCGUUCGACUCGCCCGCGGGAGAUUUUUUCCUCGAGCAA [U57G C82G],≤ 0.026
15,CUCUCGGUAGCCAAGUUGGUUUAAGGCGCAAGACUUUAAUUUAUCACUACGAAAUCGUCAGAUCGGGCGUUCGACUCGCCCCCGGGAGAUUUUUUCCUCGAGCAA [U57G G59C],≤ 0.026
16,CUCUCGGUAGCCAAGUUGGUUUAAGGCGCAAGACUUUAAUUUAUCACUACGAAAUCGUUAGAUCGGGCGUUCGACUCGCCCCCGGGAGAUUUUUUCCUCGAGCAA [U57G G59U],≤ 0.026
17,CUCUCGGUAGCCAAGUUGGUUUAAGGCGCAAGACUUUAAUUUAUCACUACGAAAUCGUGACGUCUGGCGUUCGACUCGCCCCCGGGAGAUUUUUUCCUCGAGCAA [U57G G61C A62G G65U],≤ 0.026
18,CUCUCGGUAGCCAAGUUGGUUUAAGGCGCAAGACUUUAAUUUAUCACUACGAAAUCGUGACAUCGGGCCUUCGACUCGCCCCCGGGAGAUUUUUUCCUCGAGCAA [U57G G61C G69C],≤ 0.026
19,CUCUCGGUAGCCAAGUUGGUUUAAGGCGCAAGACUUUAAUUUAUCACUACGAAAUCGUGAUAUCGGGCGUUCGACUCGACCCCGGGAGAUUUUUUCCUCGAGCAA [U57G G61U C79A],≤ 0.026
20,CUCUCGGUAGCCAAGUUGGUUUAAGGCGCAAGACUUUAAUUUAUCACUACGAAAUCGUGAGAUCCGGCGUUCGACUCGCCCCCGGGAGAUUUUUUCCUCGAGCAA [U57G G65C],≤ 0.026
21,CUCUCGGUAGCCAAGUUGGUUUAAGGCGCAAGACUUUAAUUUAUCACUACGAAAUCGUGAGAUCGGCCGUUCGACUCGCCCCCGGGAGAUUUUUUCCUCGAGCAA [U57G G67C],≤ 0.026
22,CUCUCGGUAGCCAAGUUGGUUUAAGGCGCAAGACUUUAAUUUAUCACUACGAAAUCGUGAGAUCGGGCGUUCUACUCGCCACCGGGAGAUUUUUUCCUCGAGCAA [U57G G73U C81A],≤ 0.026
23,CUCUCGGUAGCCAAGUUGGUUUAAGGCGCAAGACUUUAAUUUAUCACUACGAAAUCGUGAGAUCGGGCGUUCGACUCGCCCCCGCGAGAUUUUUUCCUCGAGCAA [U57G G85C],≤ 0.026
24,CUCUCGGUAGCCAAGUUGGUUUAAGGCGCAAGACUUUAAUUUAUCACUACGAAAUCGUGAGAUCGGGCGUUCGACUCGCCCCCGUGAGAUUUUUUCCUCGAGCAA [U57G G85U],≤ 0.026
25,CUCUCGGUAGCCAAGUUGGUUUAAGGCGCAAGACUUUAAUUUAUCACUACGAAAUCGUGAGAUCGGGCGUUCGACUCGCCCCCGGAAGAUUUUUUCCUCGAGCAA [U57G G86A],≤ 0.026
26,CUCUCGGUAGCCAAGUUGGUUUAAGGCGCAAGACUUUAAUUUAUCACUACGAAAUCGUGAGAUCGGGCGUUCGACUCGCCCCCGGGACAUUUUUUCCUCGAGCAA [U57G G88C],≤ 0.026
27,CUCUCGGUAGCCAAGUUGGUUUAAGGCGCAAGACUUUAAUUUAUCACUACGAAAUCGGGAGAUCCGGCGUUCGACUCGCCCCCGGGAGAUUUUUUCCUCGAGCAA [U57G U58G G65C],≤ 0.026

row,Variant,nonsense suppression
1,CUCUCGGUAGCCAAGUUGGUUUAAGGCGCAAGACUUUAAUUUAUCACUACGAAAUCGUGAGACAGGGCGUUCGACUCGCCCCCGGGAGAUUUUUUCCUCGAGCAA [U57G U63C C64A],≤ 0.026
2,CUCUCGGUAGCCAAGUUGGUUUAAGGCGCAAGACUUUAAUUUAUCACUACGAAAUCGUGAGACCGGGCGUUAGACUCGCCCCCGUGAGAUUUUUUCCUCGAGCAA [U57G U63C C72A G85U],≤ 0.026
3,CUCUCGGUAGCCAAGUUGGUUUAAGGCGCAAGACUUUAAUUUAUCACUACGAAAUCGUGAGAUCGGGCGGUCGACUCGGCCCCGGGAGAUUUUUUCCUCGAGCAA [U57G U70G C79G],≤ 0.026
4,CUCUCGGUAGCCAAGUUGGUUUAAGGCGCAAGACUUUAAUUUAUCACUACGAAAUCGUGAGAUCGGGCGUCCGACUCGCCCCCGGUAGAUUUUUUCCUCGAGCAA [U57G U71C G86U],≤ 0.026
5,CUCUCGGUAGCCAAGUUGGUUUAAGGCGCAAGACUUUAAUUUAUCACUACGAAAUCUAGAGAUCGGGCGUUCGACUCGCCCCCGGGAGAUUUUUUCCUCGAGCAA [U58A],≤ 0.026
6,CUCUCGGUAGCCAAGUUGGUUUAAGGCGCAAGACUUUAAUUUAUCACUACGAAAUCUAGCGAUCGGGCGUUCGACUCGCCCCCGGGAGAUUUUUUCCUCGAGCAA [U58A A60C],0.0508
7,CUCUCGGUAGCCAAGUUGGUUUAAGGCGCAAGACUUUAAUUUAUCACUACGAAAUCUAGCGAUCUGGCGAUCGACUCGCCCCCGGGAGAUUUUUUCCUCGAGCAA [U58A A60C G65U U70A],≤ 0.026
8,CUCUCGGUAGCCAAGUUGGUUUAAGGCGCAAGACUUUAAUUUAUCACUACGAAAUCUAGUGAUCGGGCGCUCGACUCGCCCCCGGGAGAUUUUUUCCUCGAGCAA [U58A A60U U70C],≤ 0.026
9,CUCUCGGUAGCCAAGUUGGUUUAAGGCGCAAGACUUUAAUUUAUCACUACGAAAUCUAGAGAUCGGGCGUUCGGCUCGCCCCCGGGAGAUUUUUUCCUCGAGCAA [U58A A74G],≤ 0.026
10,CUCUCGGUAGCCAAGUUGGUUUAAGGCGCAAGACUUUAAUUUAUCACUACGAAAUCUAGAGAUUGGGCGUUCGACUCGCCCCCGGGAGAUUUUUUCCUCGAGCAA [U58A C64U],≤ 0.026
11,CUCUCGGUAGCCAAGUUGGUUUAAGGCGCAAGACUUUAAUUUAUCACUACGAAAUCUAGAGAUCGGGAGUUCGACUCGCCCCCGGGAGAUUUUUUCCUCGAGCAA [U58A C68A],≤ 0.026
12,CUCUCGGUAGCCAAGUUGGUUUAAGGCGCAAGACUUUAAUUUAUCACUACGAAAUCUAGAGAUCGGGCGUUCGACUAGUCCCCGGGAGAUUUUUUCCUCGAGCAA [U58A C77A C79U],≤ 0.026
13,CUCUCGGUAGCCAAGUUGGUUUAAGGCGCAAGACUUUAAUUUAUCACUACGAAAUCUAGAGAUCGGGCGUUCGACUCGCACCCGGGAGAUUUUUUCCUCGAGCAA [U58A C80A],≤ 0.026
14,CUCUCGGUAGCCAAGUUGGUUUAAGGCGCAAGACUUUAAUUUAUCACUACGAAAUCUAGAGAUCGGGCGUUCGACUCGCCCUCGGGAGAUUUUUUCCUCGAGCAA [U58A C82U],≤ 0.026
15,CUCUCGGUAGCCAAGUUGGUUUAAGGCGCAAGACUUUAAUUUAUCACUACGAAAUCUAAAGAUCGGGCGUUCGACUCGCCCCCGGGAGAUUUUUUCCUCGAGCAA [U58A G59A],≤ 0.026
16,CUCUCGGUAGCCAAGUUGGUUUAAGGCGCAAGACUUUAAUUUAUCACUACGAAAUCUAGAAAUCGGGCGUUCGACUCGCCCCCGGGAGAUUUUUUCCUCGAGCAA [U58A G61A],0.0532
17,CUCUCGGUAGCCAAGUUGGUUUAAGGCGCAAGACUUUAAUUUAUCACUACGAAAUCUAGACAUCGGGCGUUCGACUCGCCCCCGGGAGAUUUUUUCCUCGAGCAA [U58A G61C],≤ 0.026
18,CUCUCGGUAGCCAAGUUGGUUUAAGGCGCAAGACUUUAAUUUAUCACUACGAAAUCUAGAUAUCGGGCGUUCGACUCGCCCCCGGGAGAUUUUUUCCUCGAGCAA [U58A G61U],≤ 0.026
19,CUCUCGGUAGCCAAGUUGGUUUAAGGCGCAAGACUUUAAUUUAUCACUACGAAAUCUAGAGAUCCGGCGUUCGACUCGCCCCCGGGAGAUUUUUUCCUCGAGCAA [U58A G65C],≤ 0.026
20,CUCUCGGUAGCCAAGUUGGUUUAAGGCGCAAGACUUUAAUUUAUCACUACGAAAUCUAGAGAUCGAGCGUUCAACUCGCCCCCGGGAGAUUUUUUCCUCGAGCAA [U58A G66A G73A],≤ 0.026
21,CUCUCGGUAGCCAAGUUGGUUUAAGGCGCAAGACUUUAAUUUAUCACUACGAAAUCUAGAGAUCGCGCCUUGGACUCGCCCCCGGGAGAUUUUUUCCUCGAGCAA [U58A G66C G69C C72G],≤ 0.026
22,CUCUCGGUAGCCAAGUUGGUUUAAGGCGCAAGACUUUAAUUUAUCACUACGAAAUCUAGAGAUCGGCCGUUCGACUCGCCCCCGGGAGAUUUUUUCCUCGAGCAA [U58A G67C],≤ 0.026
23,CUCUCGGUAGCCAAGUUGGUUUAAGGCGCAAGACUUUAAUUUAUCACUACGAAAUCUAGAGAUCGGGCGUUCGACUCCCCCCCGGGAGAUUUUUUCCUCGAGCAA [U58A G78C],≤ 0.026
24,CUCUCGGUAGCCAAGUUGGUUUAAGGCGCAAGACUUUAAUUUAUCACUACGAAAUCUAGAGAUCGGGCGUUCGACUCGCCCCCAGGAGAUUUUUUCCUCGAGCAA [U58A G84A],≤ 0.026
25,CUCUCGGUAGCCAAGUUGGUUUAAGGCGCAAGACUUUAAUUUAUCACUACGAAAUCUAGAGAUCGGGCGUUCGACUCGCCCCCGUGAGAUUUUUUCCUCGAGCAA [U58A G85U],≤ 0.026
26,CUCUCGGUAGCCAAGUUGGUUUAAGGCGCAAGACUUUAAUUUAUCACUACGAAAUCUAGAGACCGGGCGUUCGACUCGCCCCCGGGAGAUUUUUUCCUCGAGCAA [U58A U63C],≤ 0.026
27,CUCUCGGUAGCCAAGUUGGUUUAAGGCGCAAGACUUUAAUUUAUCACUACGAAAUCUAGAGACCGGACGUUCGACCCGCCCCCGGGAGAUUUUUUCCUCGAGCAA [U58A U63C G67A U76C],≤ 0.026
